In the supplement of paper PMC8728848:
The list shows a part of the results.

How the values were obtained:
Assay in all cases: glycan array binding signal (z-score within array); higher = stronger binding
Conditions in all cases: glycan notation: IUPAC condensed, linker removed
Neu5Ac(a2-8)Neu5Ac = target: Neu5Ac(a2-8)Neu5Ac
Summary of the method: (§1)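 The binding signal is a Z-score computed within each array. Data were drawn from 3228 arrays in the Consortium for Functional Glycomics database, restricted to those with a known protein sequence. Scores were averaged over arrays of the same protein sequence at different concentrations or buffers, and over linkers, and negative values can be taken as non-binding.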

[1] = target: Neu5Ac(a2-8)Neu5Ac(a2-3)Gal(b1-3)GalNAc(b1-4)[Neu5Ac(a2-3)]Gal(b1-4)Glc
Summary of the method: as §1

[2] = target: Neu5Ac(a2-8)Neu5Ac(a2-3)Gal(b1-3)GalNAc(b1-4)[Neu5Ac(a2-8)Neu5Ac(a2-3)]Gal(b1-4)Glc
Summary of the method: as §1

[3] = target: Neu5Ac(a2-8)Neu5Ac(a2-3)Gal(b1-4)Glc
Summary of the method: as §1

[4] = target: Neu5Ac(a2-8)Neu5Ac(a2-3)Gal(b1-4)GlcNAc
Summary of the method: as §1

[5] = target: Neu5Ac(a2-8)Neu5Ac(a2-3)[Gal(b1-3)GalNAc(b1-4)]Gal(b1-4)Glc
Summary of the method: as §1

[6] = target: Neu5Ac(a2-8)Neu5Ac(a2-3)[GalNAc(b1-4)]Gal(b1-4)Glc
Summary of the method: as §1

[7] = target: Neu5Ac(a2-8)Neu5Ac(a2-8)Neu5Ac
Summary of the method: as §1

[8] = target: Neu5Ac(a2-8)Neu5Ac(a2-8)Neu5Ac(a2-3)Gal(b1-4)Glc
Summary of the method: as §1

[9] = target: Neu5Ac(a2-8)Neu5Ac(a2-8)Neu5Ac(a2-3)[Gal(b1-3)GalNAc(b1-4)]Gal(b1-4)Glc
Summary of the method: as §1

[10] = target: Neu5Ac(a2-8)Neu5Ac(a2-8)Neu5Ac(a2-3)[GalNAc(b1-4)]Gal(b1-4)Glc
Summary of the method: as §1

[11] = target: Neu5Ac(a2-8)Neu5Ac(a2-8)Neu5Ac(a2-8)Neu5Ac(a2-3)[GalNAc(b1-4)]Gal(b1-4)Glc
Summary of the method: as §1

[12] = target: Neu5Ac(a2-8)Neu5Gc(a2-3)Gal(b1-4)GlcNAc
Summary of the method: as §1

[13] = target: Neu5Ac(b2-6)Gal(b1-4)GlcNAc
Summary of the method: as §1

Neu5Ac(b2-6)GalNAc = target: Neu5Ac(b2-6)GalNAc
Summary of the method: as §1

[14] = target: Neu5Ac9Ac(a2-3)Gal(b1-3)GlcNAc
Summary of the method: as §1

[15] = target: Neu5Ac9Ac(a2-3)Gal(b1-4)GlcNAc
Summary of the method: as §1

[16] = target: Neu5Ac9Ac(a2-6)Gal(b1-4)GlcNAc
Summary of the method: as §1

[17] = target: Neu5Gc(a2-3)Gal(b1-3)GlcNAc
Summary of the method: as §1

[18] = target: Neu5Gc(a2-3)Gal(b1-3)[Fuc(a1-4)]GlcNAc
Summary of the method: as §1

Neu5Gc(a2-3)Gal(b1-4)Glc = target: Neu5Gc(a2-3)Gal(b1-4)Glc
Summary of the method: as §1

[19] = target: Neu5Gc(a2-3)Gal(b1-4)GlcNAc
Summary of the method: as §1

[20] = target: Neu5Gc(a2-3)Gal(b1-4)GlcNAc(b1-3)Gal(b1-4)GlcNAc(b1-2)Man(a1-3)[Neu5Gc(a2-3)Gal(b1-4)GlcNAc(b1-3)Gal(b1-4)GlcNAc(b1-2)Man(a1-6)]Man(b1-4)GlcNAc(b1-4)GlcNAc
Summary of the method: as §1

[21] = target: Neu5Gc(a2-3)Gal(b1-4)[Fuc(a1-3)]GlcNAc
Summary of the method: as §1

[22] = target: Neu5Gc(a2-6)Gal(b1-4)GlcNAc
Summary of the method: as §1

Neu5Gc(a2-6)GalNAc = target: Neu5Gc(a2-6)GalNAc
Summary of the method: as §1

[23] = target: Neu5Gc(a2-8)Neu5Ac(a2-3)Gal(b1-4)GlcNAc
Summary of the method: as §1

[24] = target: Neu5Gc(a2-8)Neu5Gc(a2-3)Gal(b1-4)GlcNAc
Summary of the method: as §1

[25] = target: Neu5Gc(a2-8)Neu5Gc(a2-3)Gal(b1-4)GlcNAc(b1-3)Gal(b1-4)GlcNAc
Summary of the method: as §1

[26] = target: Neu5Gc(a2-8)Neu5Gc(a2-6)Gal(b1-4)GlcNAc
Summary of the method: as §1

[27] = target: Neu5Gc(b2-6)Gal(b1-4)GlcNAc
Summary of the method: as §1

B1: SSP1 (Sclerotinia sclerotiorum), XP_001584968 (protein)
chain: MGSSHHHHHHSSGLVPRGSHMSLLTTELACTSAPDQVLHLFFQDGQNILEARSPDGGNVWTTQDTIIAKDGDYNGSSMTCYYVDKDANFDNQPSIHLLYMNKDKQLTEKVKRMKGDNPIWEDAKVPDEVRKGPEQYSKLTSGSFNQGTGWNPNGSQWAYFSASKDGKMGIVEIRRTPKDPWHTETILEEKWGDELPGTALACVIGNGKIRVFLQHHDYSIILYENQNNTWHDRGTFIPKDKVQATTPLACTMTKDGSVHLFYVSKSNKIIHCTDGKKEEELINFFPGSKLGATSVENKITLFFRNLNPVNEVGTLENENGSWKHGTTVIPA
glycan array binding signal (z-score) (Neu5Ac(a2-8)Neu5Ac): -0.405
glycan array binding signal (z-score) [1]: -0.216
glycan array binding signal (z-score) [2]: 0.181
glycan array binding signal (z-score) [3]: -0.712
glycan array binding signal (z-score) [4]: -0.119
glycan array binding signal (z-score) [5]: -0.217
glycan array binding signal (z-score) [6]: 0.221
glycan array binding signal (z-score) [7]: -0.283
glycan array binding signal (z-score) [8]: -0.656
glycan array binding signal (z-score) [9]: 0.164
glycan array binding signal (z-score) [10]: -0.49
glycan array binding signal (z-score) [11]: 0.336
glycan array binding signal (z-score) [12]: 9.08
glycan array binding signal (z-score) [13]: -0.707
glycan array binding signal (z-score) (Neu5Ac(b2-6)GalNAc): -0.532
glycan array binding signal (z-score) [14]: -0.209
glycan array binding signal (z-score) [15]: -0.449
glycan array binding signal (z-score) [16]: -0.228
glycan array binding signal (z-score) [17]: 0.388
glycan array binding signal (z-score) [18]: 0.987
glycan array binding signal (z-score) (Neu5Gc(a2-3)Gal(b1-4)Glc): 0.196
glycan array binding signal (z-score) [19]: -0.22
glycan array binding signal (z-score) [20]: 0.241
glycan array binding signal (z-score) [21]: -0.542
glycan array binding signal (z-score) [22]: -0.229
glycan array binding signal (z-score) (Neu5Gc(a2-6)GalNAc): -0.258
glycan array binding signal (z-score) [23]: -0.438
glycan array binding signal (z-score) [24]: -0.265
glycan array binding signal (z-score) [25]: -0.207
glycan array binding signal (z-score) [26]: -0.359
glycan array binding signal (z-score) [27]: 0.101
